Where “and” joins values, the source holds several entries; their conditions need not be identical. Identical values can stand only once. The shares of active, inactive and inconclusive entries below differ from those in the screen. A call without a number means that no potency is given here. Where the call is inconclusive, the potency comes from a doubtful curve fit. Calls of active or inactive are those of the source. Unless noted, calls come from the whole dose curve; as a rule, active = well fitted curve in the direction sought with a large enough effect in the repeat runs; inconclusive = weak or mixed curves; inactive = no such curve, though single readings can be large; an effect the other way counts as inactive or inconclusive.
Target: Estrogen receptor beta (Homo sapiens) (UniProt Q92731)
UniProt Q92731, sequence (Q92731 whole entry, looked up): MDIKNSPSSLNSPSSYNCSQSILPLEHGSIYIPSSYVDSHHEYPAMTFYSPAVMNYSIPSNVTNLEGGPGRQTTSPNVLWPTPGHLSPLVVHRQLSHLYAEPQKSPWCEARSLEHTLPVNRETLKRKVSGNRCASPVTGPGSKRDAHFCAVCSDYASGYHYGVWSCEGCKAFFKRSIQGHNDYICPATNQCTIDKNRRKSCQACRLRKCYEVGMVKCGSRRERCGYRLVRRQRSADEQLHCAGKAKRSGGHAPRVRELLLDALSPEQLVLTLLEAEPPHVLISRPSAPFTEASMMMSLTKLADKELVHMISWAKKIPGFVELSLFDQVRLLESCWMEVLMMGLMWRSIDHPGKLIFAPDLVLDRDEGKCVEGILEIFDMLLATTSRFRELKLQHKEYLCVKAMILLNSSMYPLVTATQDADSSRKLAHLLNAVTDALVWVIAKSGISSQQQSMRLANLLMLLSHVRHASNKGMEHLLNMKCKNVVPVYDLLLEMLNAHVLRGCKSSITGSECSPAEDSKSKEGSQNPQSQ
Assay: qHTS assay to identify small molecule antagonists of the estrogen receptor beta (ER-beta) signaling pathway (AID 1259378; active = well fitted inhibition curve with a large enough effect in the signal ratio in the repeat runs, not every such curve was filed as active; inconclusive = weak or mixed curves, or effect the other way; inactive = no such curve, though single readings can be large or run the other way; the % refers to the signal ratio)
Conditions: ER-beta-UAS-bla HEK293T, beta-lactamase FRET ratio, 16 h; activity, negative = inhibition: at 92.4 µM (top of the series) unless noted
Outline: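 Antagonist mode: compounds added to beta-lactamase reporter HEK293T ER-beta-UAS cells stimulated with E2 (1nM final), 16 hr at 37C. LiveBLAzer B/G FRET substrate, 2 hours room temperature, fluorescence read-out.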
In the case of CC(=O)CC(C)C, the Potency was “inactive”.
With COCCCOCCCOC the Potency was “inactive”.
With C=C(C)C(=O)OCCOC(=O)C(=C)C the Potency was “inactive”.
With CC(=O)O[C@@H]1C(=O)O[C@@H]2[C@H]1OC(=O)[C@@H]2OC(C)=O the Potency was “inactive”.
In the case of CCN(CCCc1ccccc1)CCCc1ccccc1, the activity, negative = inhibition was inconclusive: -28.4% [at 42.5 µM].
With CC(S)C(C)S (stereo unspecified) the Potency was “inactive”.
In the case of C[C@]12C[C@H](O)[C@H]3[C@@H](CCC4=CC(=O)CC[C@@]43C)[C@@H]1CC[C@@H]2C(=O)CO, the activity, negative = inhibition was inconclusive: -26.9%.
In the case of C#C[C@]1(OC(C)=O)CC[C@H]2[C@@H]3CCC4=C/C(=N/O)CC[C@@H]4[C@H]3CC[C@@]21CC, the Potency was inconclusive: 33.5 µM [rising, partial curve, poor fit].
In the case of OC(CCl)CCl, the Potency was “inactive”.
In the case of CCCCCCCC/C=C\CCCCCCCC(N)=O, the activity, negative = inhibition was inconclusive: -21.3%.
In the case of CC(=O)OCC(=O)[C@@]1(O)[C@H](C)C[C@H]2[C@@H]3CCC4=CC(=O)C=C[C@]4(C)[C@@]3(F)[C@@H](O)C[C@@]21C, the Potency was “inactive”.
With Cc1oc(=O)oc1CN1CCN(c2cc3c(cc2F)c(=O)c(C(=O)O)c2n3C(C)S2)CC1 (stereo unspecified) the activity, negative = inhibition was inconclusive: 18.2% [at 42.5 µM].
With COc1ccccc1OCC(O)CN1CCN(CC(=O)Nc2c(C)cccc2C)CC1 (stereo unspecified) the Potency was “inactive”.
In the case of O=C1O[C@@H]2[C@@H](O)[C@H](O)O[C@@H]2[C@H]1O, the Potency was “inactive”.
With CC(C)NCC(O)c1ccc(NS(C)(=O)=O)cc1 (stereo unspecified) the Potency was “inactive”.
For CC1(C)CO[C@@H](CC(=O)O)CN1, the Potency was “inactive”.
In the case of C1CCCNCC1, the Potency was inconclusive: 72.2 µM [cytotoxic, partial curve, poor fit].
For CC(=O)CC(=O)Nc1ccccc1, the Potency was “inactive”.
For NC(=O)N1c2ccccc2C=Cc2ccccc21, the activity, negative = inhibition was inconclusive: -1.75% [at 42.5 µM].
With OCCC(F)(F)C(F)(F)C(F)(F)C(F)(F)C(F)(F)C(F)(F)C(F)(F)C(F)(F)F the activity, negative = inhibition was inconclusive: 4.47%.
For N#CCCOCCOCCC#N, the Potency was “inactive”.
With Nc1ccccc1Nc1ccccc1 the Potency was inconclusive: 24.4 µM.
In the case of CNC(=O)c1ccccc1, the activity, negative = inhibition was inconclusive: -9.98%.
With CCC(C)C1N=C(C)C(C)S1 (stereo unspecified) the Potency was “inactive”.
For COc1ccc(COC=O)cc1, the Potency was “inactive”.
With Cc1cccc(Nc2cc(Cl)nc(SCC(=O)O)n2)c1C the Potency was inconclusive: 35.5 µM [fluorescent, partial curve] and inconclusive: 26.6 µM and the activity, negative = inhibition was inconclusive: -43.7%.
In the case of COc1ccc(N=[N+]([O-])c2ccc(OC)cc2)cc1, the activity, negative = inhibition was inconclusive: 17.8%.
In the case of Cc1ccc2ccccc2n1, the Potency was “inactive”.
With COC(=O)c1cc(Cl)cc(Cl)c1 the Potency was “inactive”.

Tested on: not listed separately
Assay: qHTS assay to identify small molecule agonists of the androgen receptor (AR) signaling pathway in the presence of an antagonist - cell viability counter screen (AID 1259379); note: nearly all actives have a fitted effect of over 25% in size
Conditions: MDA-kb2 viability, CellTiter-Fluor, 16 h; series mostly up to 92.4 µM
Outline: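 Counter screen for cell viability run in parallel with the AR agonist-mode luciferase assay. MDA-kb2 cells were co-treated with nilutamide (3.0uM final) and compounds, then incubated 16 hr at 37C, and CellTiter-Fluor fluorescence was measured.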
In the case of COc1ccc(Nc2ccc(OC)cc2)cc1, the Potency was inconclusive: 69.8 µM [cytotoxic, single point].
For COc1ccc2c(c1)c(CC(=O)OC/C=C(\C)CC/C=C(\C)CCC=C(C)C)c(C)n2C(=O)c1ccc(Cl)cc1, the Potency was “inactive”.
With c1ccsc1 the Potency was “inactive”.
With CCN(CCCc1ccccc1)CCCc1ccccc1 the Potency was inconclusive: 11.9 µM [cytotoxic, full curve, poor fit].
In the case of O=C(COCCOCCOCC(=O)Nc1c(I)cc(I)c(C(=O)O)c1I)Nc1c(I)cc(I)c(C(=O)O)c1I, the Potency was “inactive”.
With CC1=NN(c2ccc(C(=O)O)cc2)C(=O)C1 the Potency was “inactive”.
For CCOc1ccc(N)c([N+](=O)[O-])c1, the Potency was inconclusive: 68.6 µM [cytotoxic, single point].
For Nc1ccccc1Nc1ccccc1, the Potency was “inactive”.
For CC(C)C(O)C(C)(C)CO (stereo unspecified), the Potency was inconclusive: 5.01 µM [cytotoxic, full curve].
For CCOC(N)=O, the Potency was “inactive”.
In the case of O=C1CCC(=O)N1Cl, the Potency was “inactive”.

Tested on: not listed separately
Assay: qHTS assay to identify small molecule agonists of the estrogen receptor beta (ER-beta) signaling pathway - cell viability counter screen (AID 1259380); note: nearly all actives have a fitted effect of over 30% in size
Conditions: ER-beta-bla HEK293T viability, CellTiter-Glo luminescence, 16 h; series mostly up to 92.4 µM
Outline: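 In this qHTS counter screen, HEK293T cells carrying an ER-beta/UAS beta-lactamase reporter, grown in 2% charcoal-stripped FBS, received compound for 16 hr; ATP-based CellTiter-Glo luminescence was then read after 30 min at room temperature.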
In the case of C#C[C@]1(OC(C)=O)CC[C@H]2[C@@H]3CCC4=C/C(=N/O)CC[C@@H]4[C@H]3CC[C@@]21CC, the Potency was inconclusive: 33.5 µM [cytotoxic, single point].
With CCCCCCCC/C=C\CCCCCCCC(N)=O the Potency was inconclusive: 27.3 µM [cytotoxic, single point].
In the case of COc1ccccc1OCC(O)CN1CCN(CC(=O)Nc2c(C)cccc2C)CC1 (stereo unspecified), the Potency was “inactive”.
For CC(=O)CC(=O)Nc1ccccc1, the Potency was inconclusive: 0.153 µM [rising, partial curve].
In the case of Cc1cccc(Nc2cc(Cl)nc(SCC(=O)O)n2)c1C, the Potency was inconclusive: 38.5 µM [cytotoxic, partial curve, poor fit] and inconclusive: 35.5 µM [cytotoxic, partial curve].
In the case of COc1ccc(N=[N+]([O-])c2ccc(OC)cc2)cc1, the Potency was inconclusive: 67.9 µM [rising, partial curve, poor fit].

Tested on: not listed separately
Assay: qHTS assay to identify small molecule antagonists of the estrogen receptor beta (ER-beta) signaling pathway - cell viability counter screen (AID 1259382); note: nearly all actives have a fitted effect of over 55% in size
Conditions: ER-beta-UAS-bla HEK293T viability, CellTiter-Glo luminescence, 16 h; series mostly up to 92.4 µM
Outline: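 HEK293T ER-beta-UAS-bla, 2% charcoal-stripped FBS; compounds + 1nM E2 16 hr 37C; CellTiter-Glo luminescence, 30 min RT.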
In the case of C=C(C)C(=O)OCCOC(=O)C(=C)C, the Potency was “inactive”.
With CCN(CCCc1ccccc1)CCCc1ccccc1 the Potency was inconclusive: 16.8 µM [cytotoxic, partial curve].
With C[C@]12C[C@H](O)[C@H]3[C@@H](CCC4=CC(=O)CC[C@@]43C)[C@@H]1CC[C@@H]2C(=O)CO the Potency was inconclusive: 77.1 µM [cytotoxic, partial curve, poor fit].
In the case of C#C[C@]1(OC(C)=O)CC[C@H]2[C@@H]3CCC4=C/C(=N/O)CC[C@@H]4[C@H]3CC[C@@]21CC, the Potency was inconclusive: 33.5 µM [cytotoxic, single point].

— PubChem BioAssay (Tox21)
Potency is the fitted concentration of half-maximal effect; tags give direction and shape of the fitted curve or compound fluorescence and quenching.
